Results filed as inconclusive are left out. Calls follow the shape of the full dose curve. Some compounds were tested as several samples or in several runs, with calls that do not always agree. Certain results were filed several times, with different values. This list holds those alone. The source may hold further records. The records of an entry repeat one measurement across runs, samples, wells, individuals or studies. A tag in brackets gives the origin of a value. The letters are not those of the source and start again with each entry.
Target: Retinoic acid receptor RXR-alpha (Homo sapiens) (UniProt P19793)
Sequence of UniProt P19793 (P19793 whole entry, looked up): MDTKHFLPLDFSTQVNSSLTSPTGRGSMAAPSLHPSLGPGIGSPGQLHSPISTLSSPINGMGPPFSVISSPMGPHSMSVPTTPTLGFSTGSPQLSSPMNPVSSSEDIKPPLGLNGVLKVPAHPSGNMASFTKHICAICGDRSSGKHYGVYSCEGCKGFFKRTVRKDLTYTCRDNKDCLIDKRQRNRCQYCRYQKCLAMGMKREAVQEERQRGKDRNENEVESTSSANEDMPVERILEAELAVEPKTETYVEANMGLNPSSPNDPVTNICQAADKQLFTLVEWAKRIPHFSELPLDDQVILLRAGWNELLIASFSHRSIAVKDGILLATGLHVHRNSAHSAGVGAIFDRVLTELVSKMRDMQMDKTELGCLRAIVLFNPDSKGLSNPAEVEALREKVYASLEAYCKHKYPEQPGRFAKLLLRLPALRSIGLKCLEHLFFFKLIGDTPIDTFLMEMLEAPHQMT
Experiment: qHTS assay for small molecule agonists of retinoid X receptor alpha signaling (AID 588544)
Potency is read from the fitted curve at half-maximal effect.

c1ccc(-c2ccccc2)cc1
Potency: inactive [sample A] and active: 35.5 µM [sample B]

From PubChem BioAssay (NCATS)
